Source: article PMC6919601, “Identification of Plasmodium dipeptidyl aminopeptidase allosteric inhibitors by high throughput screening” (PLoS ONE, 2019)
The whole screen tested about 110,000 compounds, of which about 230 (0.21%) showed an effect of 50% or more. The list shows a part of the results.
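Further: 30 min substrate incubation versus DMSO and 10 µM JCP410 controls.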

These compounds were tested against DPAP1 (Plasmodium falciparum, UniProt Q8IIJ9) (assay: primary screen, percent inhibition; read by cleavage of a fluorogenic dipeptide substrate; higher = more effect of the substance).
Sequence of DPAP1 (Q8IIJ9 whole entry, looked up): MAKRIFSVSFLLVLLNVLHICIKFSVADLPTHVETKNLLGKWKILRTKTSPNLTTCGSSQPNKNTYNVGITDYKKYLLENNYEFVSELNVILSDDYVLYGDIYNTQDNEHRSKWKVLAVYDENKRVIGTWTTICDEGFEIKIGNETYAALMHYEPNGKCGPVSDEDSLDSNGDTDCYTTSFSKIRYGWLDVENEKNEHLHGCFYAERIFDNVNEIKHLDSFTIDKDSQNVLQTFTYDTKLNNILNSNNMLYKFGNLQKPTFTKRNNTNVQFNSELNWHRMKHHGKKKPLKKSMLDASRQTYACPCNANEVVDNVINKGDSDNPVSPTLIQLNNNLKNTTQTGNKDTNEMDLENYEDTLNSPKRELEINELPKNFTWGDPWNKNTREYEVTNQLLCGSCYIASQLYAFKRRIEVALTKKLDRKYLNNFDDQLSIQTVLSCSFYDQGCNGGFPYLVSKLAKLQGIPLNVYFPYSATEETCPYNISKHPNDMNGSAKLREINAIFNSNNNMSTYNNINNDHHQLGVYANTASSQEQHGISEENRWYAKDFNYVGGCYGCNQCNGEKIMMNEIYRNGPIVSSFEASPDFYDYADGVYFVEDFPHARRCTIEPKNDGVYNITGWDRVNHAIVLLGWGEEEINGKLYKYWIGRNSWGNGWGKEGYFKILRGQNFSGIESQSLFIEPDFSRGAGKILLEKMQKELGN
Set-up: species or system P. falciparum D10 trophozoite lysates; single well
CCOc1ccc(Oc2cc(N)ccn2)cc1 was tested, and the “% Inhibition @ 10 uM” value was 1.7%. For CC1(C)CC(=O)c2cc(OCC(=O)N3CCc4ccccc4C3)ccc2O1, the “% Inhibition @ 10 uM” value was -3.12%. In the case of CCOc1ccc(C(O)c2nccn2C)cc1 (stereo not shown), the “% Inhibition @ 10 uM” value is reported as -0.0804%. CC(C)(C)c1ccc(NC(=O)CSc2nc3nncc-3c(O)n2-c2ccccc2)cc1 was tested, and the “% Inhibition @ 10 uM” value was 0.726%. With COC(=O)c1sccc1NC(=S)N1CCC(Cc2ccccc2)CC1 the “% Inhibition @ 10 uM” value was 2.83%. For O=C(NCc1ccccn1)C1CCN(S(=O)(=O)c2ccc(Br)cc2)CC1, the “% Inhibition @ 10 uM” value was 1.57%. With CCc1nn(-c2nc3c(C)cccc3s2)c(N)c1C#N the “% Inhibition @ 10 uM” value was 1.57%. COc1cccc(-c2nn3c(C)nnc3s2)c1 was tested, and the “% Inhibition @ 10 uM” value was 3.88%. Cc1nn(C(C)C(=O)NCCC(C)C)c(=O)c2c1sc1ccccc12 (stereo not shown) was tested, and the “% Inhibition @ 10 uM” value was -7.19%. For CCc1nn(C(CC)C(=O)NCc2cc(Br)ccc2OC)c(=O)c2cc3occc3n12 (stereo not shown), the “% Inhibition @ 10 uM” value was 3.11%. Cc1noc(NS(=O)(=O)c2ccc(NC(=O)c3ccc(Cl)cc3)cc2)c1C was tested, and the “% Inhibition @ 10 uM” value was -8.95%. For CCc1nc2ccccc2n1CC(O)COCC1CC=CCC1 (stereo not shown), the “% Inhibition @ 10 uM” value was 9.32%. For Cc1cc(Cl)ccc1OC(C)C(=O)Nc1nc(C)c(C)s1 (stereo not shown), the “% Inhibition @ 10 uM” value was -4.59%. For O=C(CSc1c2c(nc3cc(Cl)ccc13)CCCC2)N1CCCC1, the “% Inhibition @ 10 uM” value was -7.13%. In the case of CC1=NN(C(=O)c2ccccc2F)C(O)(c2ccccc2)C1 (stereo not shown), the “% Inhibition @ 10 uM” value is reported as -5.31%. COc1ccc(C2C(C#N)=C(N)N(c3ccc(Cl)cc3)C3=C2C(=O)CCC3)cc1OC (stereo not shown) was tested, and the “% Inhibition @ 10 uM” value was -2.21%. With CCOCC(=O)NCCNC(=O)C(NC(=O)C1CCC(C)CC1)C(C)C (stereo not shown) the “% Inhibition @ 10 uM” value was -5.67%. With Cc1coc2cc3oc(=O)c(CC(=O)NCc4ccco4)c(C)c3cc12 the “% Inhibition @ 10 uM” value was 4.13%. In the case of Cc1ccc(CCNC(=O)c2oc(=O)c3ccccc3c2-c2ccccc2)cc1, the “% Inhibition @ 10 uM” value is reported as 0.208%. With Cc1ccc(NC(=O)c2ccc(CN3CCOCC3)cc2)cc1C the “% Inhibition @ 10 uM” value was 0.643%. In the case of Cc1ccc(OCC(=O)O/N=C(\N)c2ccccc2)c(Br)c1, the “% Inhibition @ 10 uM” value is reported as 0.484%. COc1ccc(CN2CCC(N3CC(C)OC(C)C3)CC2)cc1OC (stereo not shown) was tested, and the “% Inhibition @ 10 uM” value was 0.565%. CCOC(=O)C(C#N)/C(S)=N/c1ccccc1 (stereo not shown) was tested, and the “% Inhibition @ 10 uM” value was 1.27%. In the case of C=CCn1c(-c2nonc2NC(C)=O)nc2ccccc21, the “% Inhibition @ 10 uM” value is reported as -2.16%. For COc1ccc(S(=O)(=O)N2CCCC2C(=O)NCc2ccccc2Cl)cc1 (stereo not shown), the “% Inhibition @ 10 uM” value was 2.19%. For Cc1ccccc1-c1nnc(NC(=O)C(=O)c2c[nH]c3ccccc23)s1, the “% Inhibition @ 10 uM” value was 3.92%. With CCCc1nc2ccccc2n2c(-c3ccccc3)c3c(=O)n(C)c(=O)n(C)c3c12 the “% Inhibition @ 10 uM” value was -1.65%. In the case of CCN(CC)CCOC(c1ccccc1)c1ccccc1, the “% Inhibition @ 10 uM” value is reported as -2.62%. COc1ccc(S(=O)(=O)N2CCC(C(=O)Nc3c(F)cccc3F)CC2)cc1 was tested, and the “% Inhibition @ 10 uM” value was -2.22%. In the case of COc1cccc(C(NC(=O)c2ccccc2)c2ccc3cccnc3c2O)c1 (stereo not shown), the “% Inhibition @ 10 uM” value is reported as 6.22%. In the case of CN1CCN(C(=O)N2c3ccccc3CCc3ccccc32)CC1, the “% Inhibition @ 10 uM” value is reported as -0.969%. With Cc1ccc(-c2nnc3sc(Cc4ccc(Cl)cc4)nn23)cc1 the “% Inhibition @ 10 uM” value was 1.25%. For CCOc1ccccc1N1C(=O)CC(N2CCC(C(N)=O)CC2)C1=O (stereo not shown), the “% Inhibition @ 10 uM” value was 0.583%. CCc1ccc(-c2nc(CS(=O)CC(=O)NC3CCCCC3C)c(C)o2)cc1 (stereo not shown) was tested, and the “% Inhibition @ 10 uM” value was 0.718%. COc1ccc(C(=O)Nc2ccncc2)cc1 was tested, and the “% Inhibition @ 10 uM” value was -1.96%. For COc1ccc(C(=O)/C=C/c2cccc3ccccc23)c(OC)c1, the “% Inhibition @ 10 uM” value was -2.28%. In the case of CCOc1ccccc1N1CCN(Cc2ccc3c(c2)OCO3)CC1, the “% Inhibition @ 10 uM” value is reported as -3.03%. In the case of O=C1c2ccc(-c3nc4ccccc4s3)cc2C(=O)N1Cc1ccncc1, the “% Inhibition @ 10 uM” value is reported as 3.1%. For O=S(=O)(NCCOc1ccccc1)c1ccc(CCn2cnnn2)cc1, the “% Inhibition @ 10 uM” value was -0.403%. COc1ccc(Cn2c(C(=O)O)c(CNCc3ccc(C)o3)c3ccccc32)cc1 was tested, and the “% Inhibition @ 10 uM” value was -1.09%. For COc1cccc(-c2nc(CSCC(=O)NCC3CCCO3)c(C)o2)c1 (stereo not shown), the “% Inhibition @ 10 uM” value was 3.99%. In the case of CCOc1ccc2nc(NC(=O)C3CCN(c4ncnc5c4nc4n5CCCCC4)CC3)sc2c1, the “% Inhibition @ 10 uM” value is reported as 4.39%. Cc1cccc(N2CCN(C(=O)Nc3cccc(Cl)c3)CC2)c1C was tested, and the “% Inhibition @ 10 uM” value was -3.26%. O=C(Cc1c(C(=O)O)[nH]c2ccc(Cl)cc12)NCC1COc2ccccc2O1 (stereo not shown) was tested, and the “% Inhibition @ 10 uM” value was 5.1%. For CC1(C)CC(N2C(=O)OC3(CC(C)(C)NC(C)(C)C3)C2(C)O)CC(C)(C)N1 (stereo not shown), the “% Inhibition @ 10 uM” value was 1.43%. For COc1cc(CN(C)C2CCN(C)CC2)cc2c1OCO2, the “% Inhibition @ 10 uM” value was 3.35%. In the case of COc1cc(NCC2CCCCC2)cc(OC)c1, the “% Inhibition @ 10 uM” value is reported as -3.27%. For Cn1c(=O)c2c(nc3n2CCCN3C2CCC(O)CC2)n(C)c1=O (stereo not shown), the “% Inhibition @ 10 uM” value was -2.86%. With CN1CCN(C2CCN(Cc3ccccc3)CC2)CC1 the “% Inhibition @ 10 uM” value was -3.6%. In the case of CCC(Cc1ccccc1)NC(=O)CS(=O)(=O)Cc1nc(-c2ccccc2Cl)oc1C (stereo not shown), the “% Inhibition @ 10 uM” value is reported as 3.4%. Cc1ccc(NC(=O)CCC(=O)O)cc1F was tested, and the “% Inhibition @ 10 uM” value was -2.51%. In the case of Cc1cc(C)nc(N2CCN(c3nc(C)cc(C)n3)CC2)n1, the “% Inhibition @ 10 uM” value is reported as 1.83%. With O=C(CCc1ccccc1)c1c(O)cc(O)cc1O the “% Inhibition @ 10 uM” value was -8.46%. For COc1ccc(Br)cc1C1C(C#N)=C(N)Oc2cc(C)n(CC3CCCO3)c(=O)c21 (stereo not shown), the “% Inhibition @ 10 uM” value was 3.93%. With O=C(O)C1CCCN1C(=O)NCc1ccccc1 (stereo not shown) the “% Inhibition @ 10 uM” value was 3.66%. For O=C(Nc1ccc(S(=O)(=O)Nc2nccs2)cc1)c1ccc(S(=O)(=O)N2CCCCC2)cc1, the “% Inhibition @ 10 uM” value was -5.78%. O=C(Cn1c(=O)c2cccn2c2cccnc21)N1CCN(Cc2ccc3c(c2)OCO3)CC1 was tested, and the “% Inhibition @ 10 uM” value was -0.397%. For CC1=C(C(=O)OCCOc2ccccc2)C(c2ccncc2)C2=C(O)CC(c3ccccc3)CC2=N1 (stereo not shown), the “% Inhibition @ 10 uM” value was -1.84%. In the case of CCc1c(O)n2nc(-c3ccccc3)ccc2[n+](-c2ccccc2)c1=O, the “% Inhibition @ 10 uM” value is reported as -0.588%. COc1ccc(C2C3=C(O)CCCC3=Nc3nn(-c4ccccc4)c(O)c32)c(OC)c1OC (stereo not shown) was tested, and the “% Inhibition @ 10 uM” value was -6.94%. For CCN(CC)C(=O)Cn1cc(C=O)c2cc(Br)ccc21, the “% Inhibition @ 10 uM” value was 4.32%. For Fc1ccccc1N1CCN(Cc2cccnc2)CC1, the “% Inhibition @ 10 uM” value was -0.969%. C=CCN1C(=O)S/C(=C\c2ccc(OCC)c(OC)c2)C1=O was tested, and the “% Inhibition @ 10 uM” value was -5.14%. In the case of COC(=O)C1=C(C)N=C(C)/C(=C(/O)OC)C1c1ccc(C)cc1 (stereo not shown), the “% Inhibition @ 10 uM” value is reported as -1.2%.
